# Results as given in paper PMC4102417.
# Only a part is listed here, and it is no random draw.
# Test system: murine 3T3 fibroblasts
# Experiment: primary screen, percent viability or growth; higher = less effect of the substance
# Description: Similarly, for measuring the cytotoxicity concentration (CC50) for 3T3 fibroblast cells, cultures were incubated with drugs for 72 hours and developed using Alamar Blue (Alamar Biosciences Inc, Sacramento, CA) as previously described.
smiles,measurement,value
CN1CCN(CCCN2c3ccccc3Sc3ccc(Cl)cc32)CC1.O=S(=O)(O)CCS(=O)(=O)O,Mammalian (3T3) cell % growth at 10 uM,-1%
